# Measured values from PubChem BioAssay AID1347120 (National Center for Advancing Translational Sciences (NCATS), 2019).
# The whole screen tested about 390,000 compounds, of which about 930 (0.24%) were called active. The inconclusive results got no clear call from the source; some entries with a clear call stand among them for comparison. Calls follow the shape of the dose curve; as a rule, active = well fitted activation curve with a large enough effect; inconclusive = small, poorly fitted or top-dose-only effect; inactive = no such curve, though single readings can be large or run the other way. Potencies beside an inconclusive call are fits to weak or partial responses and may not hold up.
# Assay: qHTS for Suppressors of FUS Proteinopathy: Primary screen using FUS-linked yeast assay; also: nearly all actives have a fitted effect of over 55% in size;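 as to growth rescue (activation): plate controls were DMSO vehicle for no effect and reference control for full effect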
# Conditions: S. cerevisiae FUS-expressing, OD600, 24 h; Potency: growth rescue; growth rescue (activation): at 76.6 µM (top of the series)
# Procedure, shortened: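 Steps: raffinose overnight preculture; dilution to OD 0.005 in 2% galactose minimal medium; compound addition (concentration series); 24hr at 30C, 99% humidity; absorbance read at 600 nm.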
# Potency is read from the fitted curve at half-maximal effect; tags tell the direction and shape of the fitted curve.
Structure (SMILES),Potency,growth rescue (activation)
CCCCCCCCN1C(=O)[C@H](CC(=O)NCc2ccc(C)o2)C[C@@]2(C(=O)OC)CC(C)(C)CC=C12,"inconclusive: 11.2 µM [activator, partial curve]",
COc1ccc(-c2sc3cc(OC)ccc3c2-c2ccc(OCCN3CCCCC3)cc2)cc1,"inconclusive: 50.1 µM [activator, single point]",
CC(C)n1c2ccccc2c2nnc(SCC(=O)OCN3C(=O)c4ccccc4C3=O)nc21,"inconclusive: 39.8 µM [activator, partial curve, poor fit]",
COc1ccc(-c2nc3ccc(Br)cn3c2Cc2cccc(Cl)c2)cc1OC,"inconclusive: 50.1 µM [activator, single point]",
Cc1cccc(C(=O)N2CCC(=O)N(C(COCc3ccc(Cl)cc3)Cc3ccccc3)CC2)c1 (stereo unspecified),"inconclusive: 15.8 µM [activator, partial curve]",
CCN(C(=O)c1cc2c(s1)-c1ccccc1OC2)c1cc(Cl)ccc1OC,"inconclusive: 35.5 µM [activator, single point]",
CC(C)(C)NC(=O)N1CCC(CO)(Cc2ccccc2Cl)CC1,"inconclusive: 5.62 µM [activator, single point]",
CC1(C(=O)Nc2cccc3ccccc23)CCN1C(=O)C1(c2ccccc2)CCCC1 (stereo unspecified),"inconclusive: 28.2 µM [activator, single point]",
Cc1ccc(-n2c(Cc3cccn3C)nnc2SCC(=O)NCc2ccco2)cc1,"inconclusive: 44.7 µM [activator, partial curve, poor fit]",
CC(C)(C)c1ccc(C(=O)N2CCC(C(=O)c3ccccc3)CC2)cc1,"inconclusive: 44.7 µM [activator, partial curve, poor fit]",
CC1CN(c2nc3c(c(=O)n(Cc4ccc(Cl)c(Cl)c4)c(=O)n3C)n2C)CC(C)O1 (stereo unspecified),"inconclusive: 50.1 µM [activator, single point]",
O=C(Nc1nc2ccccc2n1Cc1ccc(Cl)cc1)c1ccco1,,inconclusive: 74.3% [activator]
CCn1c(SCC(=O)Nc2ccc(S(=O)(=O)Nc3cc(C)nc(C)n3)cc2)nc2sc(C)c(C)c2c1=O,"inconclusive: 15.8 µM [activator, partial curve, poor fit]",
CC(=O)Nc1cc(-c2nn(CC(=O)N3CCCCC3)c(=O)c3ccccc23)ccc1N1CCOCC1,"inconclusive: 5.62 µM [activator, full curve, poor fit]",
C/C(=N\NC(=O)C1CCCN(S(=O)(=O)c2ccccc2)C1)c1ccccn1 (stereo unspecified),inactive,
COc1ccc(-c2nc(C(=O)NCC3CCCO3)cc3c2[nH]c2ccccc23)cc1 (stereo unspecified),"inconclusive: 31.6 µM [activator, single point]",
